In PubChem BioAssay AID485294 (National Center for Advancing Translational Sciences (NCATS), 2010):
Screen size: about 370,000 compounds; about 150 (0.041%) were called active. Inconclusive results, whose numbers are uncertain, are shown with a selection of clear calls. Calls come from the whole dose curve; as a rule, active = well fitted inhibition curve with a large enough effect; inconclusive = small, poorly fitted or top-dose-only effect; inactive = flat fitted curve, though single readings scatter. Potencies of inconclusive entries are left out as doubtful fits.

Each compound was assayed against Beta-lactamase (Escherichia coli (strain K12)) (UniProt P00811) (assay: qHTS Inhibitors of AmpC Beta-Lactamase (assay with detergent)). Conditions: AmpC hydrolysis of nitrocefin, absorbance 480 nm, 0.01% Triton; series mostly up to 114 µM.
Outline: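 20 mM phosphate pH 7.0 + 0.01% (detergent screen) or 0.0001% Triton X-100; 5.3 nM AmpC reagent; cpd preinc 15 min RT; nitrocefin (800 uM stock) to start; A480 q20 s × 4 min; Activity was normalised to no-enzyme and no-compound control wells.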
Note: nearly all actives have a fitted effect of over 25% in size.
Potency is the fitted concentration of half-maximal effect; tags give direction and shape of the fitted curve.

Chain of UniProt P00811 (P00811 whole entry, looked up): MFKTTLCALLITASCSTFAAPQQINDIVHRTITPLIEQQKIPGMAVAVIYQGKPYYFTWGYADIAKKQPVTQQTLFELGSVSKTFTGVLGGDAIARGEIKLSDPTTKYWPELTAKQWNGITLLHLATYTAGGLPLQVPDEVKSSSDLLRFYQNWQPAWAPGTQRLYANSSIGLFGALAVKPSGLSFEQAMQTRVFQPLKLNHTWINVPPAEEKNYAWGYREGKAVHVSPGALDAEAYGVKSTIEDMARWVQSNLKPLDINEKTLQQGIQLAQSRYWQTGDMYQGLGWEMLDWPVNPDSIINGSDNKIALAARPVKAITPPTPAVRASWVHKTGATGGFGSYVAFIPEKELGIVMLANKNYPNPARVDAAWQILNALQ

Structure (SMILES) | Potency
O=C(Cn1ncc2c(=O)oc3ccccc3c21)NCC1CCCO1 (centres undefined) | inconclusive [inhibitor, full curve]
N#Cc1cccc(C(=O)OCC(=O)c2ccc3c(c2)NC(=O)CO3)c1 | inconclusive [inhibitor, partial curve, poor fit]
Cc1cccc(C)c1Nc1c(-c2ccccn2)nc2ccccn12 | inactive
Cc1cccc(NC(=O)C(Cc2ccccc2)N2Cc3ccccc3C2=O)c1C (centres undefined) | inactive
CCOC(=O)c1ccc(NC(=O)CC2C(=O)N(c3ccc(F)cc3)C(=O)N2CCC(C)C)cc1 (centres undefined) | inactive
COC(=O)C1=C(C)N(Cc2ccco2)C(=O)/C1=C\c1ccc(N(C)C)cc1 | inactive
COC(=O)c1ccc2c(=O)n(Cc3ccco3)c(SCC(=O)Nc3ccc(C)c(Cl)c3)nc2c1 | inconclusive [inhibitor, partial curve]
CCOC(=O)c1ccc(Nc2cc(C)nc3nc(C)nn23)cc1 | inconclusive [inhibitor, full curve]
CCc1ccc(CNC(=O)c2ccc(-n3c(C)cc4c3CCC(C)C4)cc2)cc1 (centres undefined) | inactive
CC(C)(C)NC(=O)NC(=O)CN1CCN(S(=O)(=O)c2ccc3c(c2)CCCC3)CC1 | inactive
Cn1c(SCc2cccc(C#N)c2)nc2ccccc2c1=O | inconclusive [inhibitor, full curve, poor fit]
CCOc1ccc(CN(C)CC(=O)Nc2cccc(S(=O)(=O)N(C)c3ccccc3)c2)cc1 | inactive
O=C(COC(=O)/C=C/c1cccs1)NC(c1ccccc1)c1ccccc1 | inconclusive [inhibitor, full curve, poor fit]
Cc1ccc(N2C(=O)CC(Sc3ncccc3C(=O)O)C2=O)cc1 (centres undefined) | inactive
COc1ccc(CNC(=O)Cn2c(=O)n3nc(-c4cccc(F)c4)nc3c3ccccc32)cc1OC | inactive
Cc1ccc(C)c(-n2nnnc2SCC(=O)Nc2c(C)n(C)n(-c3ccccc3)c2=O)c1 | inconclusive [inhibitor, full curve, poor fit]
Cc1cc(C)c(C#N)c(N2CCN(CCOc3ccc(Cl)cc3)CC2)n1 | inconclusive [inhibitor, full curve, poor fit]
Cc1nc2c(cc1NC(=O)C(C)(C)C)nc(C)n2Cc1ccccc1 | inconclusive [inhibitor, full curve, poor fit]
Cc1cccc(N/C=C/c2onc(C)c2[N+](=O)[O-])c1 | inactive
CCC(Oc1ccccc1)C(=O)Nc1ccccc1C(=O)N1CCOCC1 (centres undefined) | inactive
O=C1N/C(=C/c2ccc(N3CCCC3)cc2)C(=O)N1c1ccccc1 | inactive
Cc1ccc(NS(=O)(=O)c2ccc(-c3cc(C)no3)cc2)c(C)c1 | inactive
Cn1cccc1/C=N/N1CCN(Cc2ccccc2)CC1 | inactive

Structure (SMILES) | Potency
C[C@]12CC[C@H]3[C@@H](CC[C@]4(O)C[C@@H](O)CC[C@]34C=O)[C@@]1(O)CC[C@@H]2C1=CC(=O)OC1 | inactive
CCc1cc2c(cc3c(=O)n(CC(=O)NC(C)C)nc(CC)n32)s1 | inactive
COC(=O)c1c(NC(=O)CN2CCN(C(=O)c3ccco3)CC2)c2cc(C)ccc2n1C | inconclusive [inhibitor, partial curve, poor fit]
Clc1cc(Br)ccc1OCCCNCc1ccccc1 | inconclusive [inhibitor, single point]
O=C(CCS(=O)(=O)c1ccccc1)N1CCCc2ccccc21 | inconclusive [inhibitor, full curve, poor fit]
CC(C)(C)NC(=O)CSc1nc2[nH]ncc2c(=O)[nH]1 | inconclusive [inhibitor, full curve]
Cc1ccc(OCC(=O)Nc2ccc(S(=O)(=O)N3CCN(C)CC3)cc2)cc1 | inconclusive [inhibitor, single point]
Cc1ccc2c(c1)C(c1ccccc1)N(C(=O)C(C)C)CC(=O)N2 (centres undefined) | inconclusive [inhibitor, full curve, poor fit]
CC(C)(C)N(Cc1ccccc1)C(=O)COC(=O)CN1C(=O)NC2(CCCC2)C1=O | inconclusive [inhibitor, full curve, poor fit]
CC(=O)CC(c1ccccc1)c1c(O)c2ccccc2oc1=O (centres undefined) | inconclusive [inhibitor, full curve, poor fit]
O=C(NCC(c1ccc2c(c1)OCO2)N1CCOCC1)C(=O)Nc1ccc(Cl)cc1 (centres undefined) | inactive
COc1ccc(CNC(=O)COC(=O)c2cccc(S(=O)(=O)N3CCOCC3)c2)cc1 | inconclusive [inhibitor, partial curve, poor fit]
Cc1ccccc1OCCSc1nnc(-c2ccc([N+](=O)[O-])cc2)o1 | inactive
CCc1cc(C(c2ccccn2)N2CCN(C)CC2)c(NC(=O)c2ccccc2)s1 (centres undefined) | inconclusive [inhibitor, full curve]
COc1cccc(C2=NOC(C(=O)N3CCc4ccccc4C3)C2)c1 (centres undefined) | inconclusive [inhibitor, full curve, poor fit]
Cc1ccc(NC(=O)c2sccc2SCc2cccc(C(F)(F)F)c2)cc1 | inconclusive [inhibitor, partial curve, poor fit]
Cc1cc([N+](=O)[O-])cc2c1NC(=O)C2(O)N1CCCCCC1 (centres undefined) | inconclusive [inhibitor, full curve, poor fit]
Cc1nc2ccn(Cc3cccs3)c(=O)c2cc1C(=O)NCc1ccc(Cl)cc1 | inconclusive [inhibitor, single point]
COc1cc2c(C(=O)N3CCN(C)CC3)c(C)n(C)c2cc1Br | inactive
COc1cc2[nH]c(=S)nc(NCCc3ccc(C)cc3)c2cc1OC | inactive
Cc1ccc(C(=O)NCC(=O)OCCCOC(=O)CNC(=O)c2ccc(C)c(C)c2)cc1C | inconclusive [inhibitor, full curve, poor fit]
COc1cc(/C=N/NC(=O)COc2cccc(F)c2)ccc1OS(=O)(=O)c1ccc(C)cc1 | inactive
CCCCn1c(SCC(=O)OCC)nnc1-c1ccoc1C | inactive

Structure (SMILES) | Potency
Nc1nc(N2CCOCC2)nc(N(c2ccccc2)c2ccccc2)n1 | inconclusive [inhibitor, full curve, poor fit]
COc1ccc(C(=O)NN=C2CCCC2)c(OC)c1 | inconclusive [inhibitor, full curve]
O=C(c1ccco1)N1CCC(c2nc3c(nnn3Cc3c(Cl)cccc3Cl)c(=O)[nH]2)CC1 | inactive
COC(=O)C1CCN(S(=O)(=O)c2cn(C)c(=O)n(C)c2=O)CC1 | inconclusive [inhibitor, full curve]
CCCCc1cc(=O)oc2cc(C)cc(OCC(=O)NCCN3CCOCC3)c12 | inconclusive [inhibitor, full curve]
O=C(CCn1c(=O)c2cccn2c2cccnc21)NCc1ccc(Cl)cc1 | inactive
CSc1cccc(NC(=S)N2CCC(N(C)C3CCCCCC3)CC2)c1 | inactive
O=C(Cc1ccc(-c2ccccc2)cc1)Nc1ncccc1O | inconclusive [inhibitor, partial curve]
O=c1oc2c(O)c(O)cc3c(=O)oc4c(O)c(O)cc1c4c23 | inconclusive [inhibitor, partial curve]
Cc1cc(NC(=O)COC(=O)C2CCN(C(=O)c3ccc(Cl)cc3)CC2)no1 | inconclusive [inhibitor, full curve, poor fit]
O=[N+]([O-])c1ccc(CN2CCC(Cc3ccccc3)CC2)cc1 | inconclusive [inhibitor, partial curve]
O=C(CSCCO)Nc1ccc(C23CC4CC(CC(C4)C2)C3)cc1 | inconclusive [inhibitor, partial curve, poor fit]
Cc1cccc(N2CN=c3s/c(=C\c4ccncc4)c(=O)n3C2)c1 | inconclusive [inhibitor, partial curve]
Cc1csc(SCC(=O)c2ccc(S(=O)(=O)N3CCOCC3)cc2)n1 | inactive
COc1ccc(C)cc1NC(=O)C1CCN(S(C)(=O)=O)CC1 | inconclusive [inhibitor, partial curve]
COc1ccc(NC(=O)COc2cccc3c2CCNC3=O)cc1 | inconclusive [inhibitor, full curve, poor fit]
O=C1c2cnc3nc(SCc4ccc(Cl)cc4)nn3c2CC2c3ccccc3CCN12 (centres undefined) | inconclusive [inhibitor, full curve, poor fit]
CCOC(=O)c1[nH]c2ccc(OC)cc2c1NC(C)=O | inactive
COC(=O)c1ccc(NC(=O)C2CC(=O)N(c3ccc(C)cc3)C2)cc1 (centres undefined) | inconclusive [inhibitor, single point]
CN1c2ccccc2C(C)(C)C12C=Nc1c(ccc3ccccc13)O2 (centres undefined) | inconclusive [inhibitor, full curve, poor fit]
CCOc1cccc(N2C(=O)CC(N3CCC(C(N)=O)(N4CCCCC4)CC3)C2=O)c1 (centres undefined) | inconclusive [inhibitor, full curve, poor fit]
CCCN1CCN(C(=O)CCCn2c(C)c3cnn(-c4ccccc4)c(=O)c3c2C)CC1 | inconclusive [inhibitor, full curve, poor fit]
CC1CSc2ccccc2NC1=S (centres undefined) | inconclusive [inhibitor, partial curve]
